Laboratory results reported in patent US8546421B1, “Oncogenic-RAS-signal dependent lethal compounds” (The Trustees of Columbia University in the City of New York, priority 2007, dated 2013).

Legend:
[1] = tested on: TRE, TRE/E6/E7/ST and TRE/E6/E7/ST/RAS^V12 cells; assay: Alamar blue assay in isogenic cells with or without oncogenic RAS
[2] = tested on: BJ-TERT/p53DD/CDK4/cyclinD1/ST/RAS^V12 (DRD) cells; assay: Alamar blue growth inhibition, DRD cell line test; format: cell-based, human; conditions: for potency / activity in DRD cells (in words): compared with BJ-TERT/LT/ST/RAS^V12 cells, alamar blue

## COCCOC(=O)C1=C(C)NC2=C(C(=O)CC(c3ccc(Cl)cc3)C2)C1c1ccccc1F (centres unmarked) [Compound 3]
[1]
  selectivity towards oncogenic HRAS in TRE cell system (in words): selectivity of Compound 3 against oncogenic RAS was manifest

## COCCOC(=O)C1=C(C)NC2=C(C(=O)CC(c3ccccc3)C2)C1c1ccccc1F (centres unmarked) [Compound 4]
[2]
  potency / activity in DRD cells (in words): inactive

## COC(=O)c1ccc(C2c3[nH]c4ccccc4c3CC(C(=O)OC)N2C(=O)CCl)cc1 (centres unmarked) [Compound 27]
[1]
  selectivity towards oncogenic HRAS in TRE cell system (in words): slightly more sensitive
[2]; DRD cells, 48 hours
  concentration at which growth was inhibited (as low as): ≥ 10 ng/mL

## C=C1CCC2C(C)(C)CCC[C@]2(C)C1CC/C(C)=C\CC/C(C)=N/NC(N)=S (some centres unmarked) [Compound 36]
[1]
  selectivity towards oncogenic HRAS in TRE cell system (in words): increase in sensitivity upon activation of oncogenic RAS signaling was seen
[2]
  potency / activity in DRD cells (in words): close to that of BJ-TERT/LT/ST cells

## COc1cccc2c1C(=O)c1c(O)c3c(c(O)c1C2=O)C[C@@](O)(C(C)=O)C[C@@H]3O[C@H]1C[C@H](N)[C@H](O)[C@H](C)O1 [daunorubicin, reference compound]
[2]
  potency / activity in DRD cells (in words): none of these traditional chemotherapeutic agents were active

## COc1cccc2c1C(=O)c1c(O)c3c(c(O)c1C2=O)C[C@@](O)(C(=O)CO)C[C@@H]3O[C@H]1C[C@H](N)[C@H](O)[C@H](C)O1 [doxorubicin, reference compound]
[2]
  potency / activity in DRD cells (in words): none of these traditional chemotherapeutic agents were active

## O=C1c2c(O)ccc(O)c2C(=O)c2c(NCCNCCO)ccc(NCCNCCO)c21 [mitoxantrone, reference compound]
[2]
  potency / activity in DRD cells (in words): none of these traditional chemotherapeutic agents were active

## COc1cc([C@@H]2c3cc4c(cc3[C@@H](O[C@@H]3O[C@@H]5CO[C@@H](c6cccs6)O[C@H]5[C@H](O)[C@H]3O)[C@H]3COC(=O)[C@H]23)OCO4)cc(OC)c1O [teniposide, reference compound]
[2]
  potency / activity in DRD cells (in words): not equally active

## CC[C@]1(O)C[C@@H]2CN(CCc3c([nH]c4ccccc34)[C@@](C(=O)OC)(c3cc4c(cc3OC)N(C)[C@H]3[C@@](O)(C(=O)OC)[C@H](OC(C)=O)[C@]5(CC)C=CCN6CC[C@]43[C@@H]65)C2)C1 [vinblastine, reference compound]
[2]
  potency / activity in DRD cells (in words): not equally active
